{
  "source": "paper PMC4336329",
  "about": "(PLoS ONE, 2015)",
  "note": "The whole screen tested about 310,000 compounds, of which about 14,000 (4.5%) showed an effect of 50% or more. The effect is printed as a negative number. Some of the results follow.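 Note: peak tail current of the secondary pulse compared with the same well before compound.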",
  "data": [
    {"biological_target": "human ether-à-go-go-related gene (hERG) potassium channel (human, UniProt Q12809)", "sequence (Q12809 whole entry, looked up)": "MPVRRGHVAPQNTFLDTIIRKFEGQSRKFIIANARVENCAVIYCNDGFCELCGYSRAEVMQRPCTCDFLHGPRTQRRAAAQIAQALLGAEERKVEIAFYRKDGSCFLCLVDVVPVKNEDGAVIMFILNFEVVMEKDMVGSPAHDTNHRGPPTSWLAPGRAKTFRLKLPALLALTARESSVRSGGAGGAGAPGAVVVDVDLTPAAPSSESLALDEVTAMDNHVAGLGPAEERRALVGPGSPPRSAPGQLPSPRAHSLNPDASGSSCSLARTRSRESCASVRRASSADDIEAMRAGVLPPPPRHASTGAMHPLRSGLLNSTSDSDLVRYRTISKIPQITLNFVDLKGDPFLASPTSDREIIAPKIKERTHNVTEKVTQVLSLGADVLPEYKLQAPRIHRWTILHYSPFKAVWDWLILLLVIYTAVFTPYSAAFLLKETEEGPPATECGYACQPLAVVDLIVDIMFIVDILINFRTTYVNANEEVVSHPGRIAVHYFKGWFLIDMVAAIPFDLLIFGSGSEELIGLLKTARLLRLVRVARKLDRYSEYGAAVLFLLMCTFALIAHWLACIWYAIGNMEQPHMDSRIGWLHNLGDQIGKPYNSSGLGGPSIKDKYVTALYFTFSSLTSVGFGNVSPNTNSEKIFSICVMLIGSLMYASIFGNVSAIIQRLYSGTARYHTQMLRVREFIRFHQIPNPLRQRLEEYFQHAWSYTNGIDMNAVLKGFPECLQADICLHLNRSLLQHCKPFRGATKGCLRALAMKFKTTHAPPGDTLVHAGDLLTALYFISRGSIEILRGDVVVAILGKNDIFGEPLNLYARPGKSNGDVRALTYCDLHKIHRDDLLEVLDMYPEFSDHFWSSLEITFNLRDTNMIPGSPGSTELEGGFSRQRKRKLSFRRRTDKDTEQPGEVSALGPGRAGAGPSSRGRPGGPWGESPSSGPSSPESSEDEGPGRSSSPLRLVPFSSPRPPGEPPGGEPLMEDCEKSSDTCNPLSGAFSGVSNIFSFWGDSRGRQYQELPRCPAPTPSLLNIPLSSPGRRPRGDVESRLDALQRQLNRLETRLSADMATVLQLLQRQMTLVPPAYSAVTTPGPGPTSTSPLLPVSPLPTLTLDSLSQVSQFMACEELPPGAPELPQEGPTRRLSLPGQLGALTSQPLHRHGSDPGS", "assay": "primary screen, population patch clamp on CHO cells stably expressing hERG", "units": {"hERG current change (%, negative = inhibition) at 10uM": "%"}, "values": [
      {"smiles": "O=C(CN1CCN(CCC(=O)Nc2ccccc2F)CC1)Nc1ccc(F)cc1", "hERG current change (%, negative = inhibition) at 10uM": -72.6},
      {"smiles": "COc1ccc(CCNC(=O)c2cccc(NC3=NC4CS(=O)(=O)CC4S3)c2)c(OC)c1", "note": "(stereo not drawn)", "hERG current change (%, negative = inhibition) at 10uM": 0.664},
      {"smiles": "Clc1ccc2c(N3CCOCC3)ccnc2c1", "hERG current change (%, negative = inhibition) at 10uM": -17.1},
      {"smiles": "CCCCCCCN1C(Nc2ccccc2)=NC[C@@H]1CC(C)C", "hERG current change (%, negative = inhibition) at 10uM": -73.7},
      {"smiles": "CC(=O)c1ccc(OCCCC(=O)NC2CCCCC2C)cc1", "note": "(stereo not drawn)", "hERG current change (%, negative = inhibition) at 10uM": 0.175},
      {"smiles": "Clc1ss/c(=N\\c2ccccn2)c1Cl", "hERG current change (%, negative = inhibition) at 10uM": 11.4},
      {"smiles": "O=C(NCCCN1CCOCC1)C1CCC(=O)N1C1CCCCC1", "note": "(stereo not drawn)", "hERG current change (%, negative = inhibition) at 10uM": -15.9},
      {"smiles": "COCCNC(=O)C(c1ccc(C)cc1)N(CCOC)C(=O)CCC(=O)Nc1ccccn1", "note": "(stereo not drawn)", "hERG current change (%, negative = inhibition) at 10uM": 17.9},
      {"smiles": "Cc1cc(NC(=O)CSc2nc(C(C)C)nc3ccccc23)no1", "hERG current change (%, negative = inhibition) at 10uM": -6.59},
      {"smiles": "CCN1C(=O)NC2C1N(S(C)(=O)=O)CCN2S(C)(=O)=O", "note": "(stereo not drawn)", "hERG current change (%, negative = inhibition) at 10uM": 0.265},
      {"smiles": "CCC(CC)C(=O)Nc1ccc(C(=O)Nc2cc(C)on2)cc1", "hERG current change (%, negative = inhibition) at 10uM": 2.73},
      {"smiles": "Cc1ccnc2nc(C(=O)OCC(=O)c3c[nH]c4ccccc34)nn12", "hERG current change (%, negative = inhibition) at 10uM": 32.1},
      {"smiles": "CCCC(=O)Nc1c(O)c2ccccc2[nH]c1=O", "hERG current change (%, negative = inhibition) at 10uM": 18.3},
      {"smiles": "c1ccc(NC2=Nc3cccc4cccc2c34)cc1", "hERG current change (%, negative = inhibition) at 10uM": 1.71},
      {"smiles": "CCOC(=O)C1(CC2CCCCO2)CCN(Cc2c(C)cc(C)cc2-n2cccn2)CC1", "note": "(stereo not drawn)", "hERG current change (%, negative = inhibition) at 10uM": -77.8},
      {"smiles": "Cc1ccc(C(=O)Oc2ccc([N+](=O)[O-])cc2)cc1S(=O)(=O)N1CCCCCC1", "hERG current change (%, negative = inhibition) at 10uM": 3.24},
      {"smiles": "O=C(CCc1ccccc1)Nc1ccc(NC(=O)c2ccco2)cc1", "hERG current change (%, negative = inhibition) at 10uM": 2.81},
      {"smiles": "O=C(c1ccccc1Cl)N1CCn2c1nc1ccccc12", "hERG current change (%, negative = inhibition) at 10uM": -2.59},
      {"smiles": "CC(C)c1nc(Cl)c(C#N)c2c1CCC2", "hERG current change (%, negative = inhibition) at 10uM": 6.65},
      {"smiles": "Cl.N=c1c2c(n(Cc3ccc([N+](=O)[O-])cc3)c3c1CCC3)CCCC2", "hERG current change (%, negative = inhibition) at 10uM": -14.4},
      {"smiles": "COc1ccc(N2CC(C(=O)N/N=C/c3cccs3)CC2=O)cc1", "note": "(stereo not drawn)", "hERG current change (%, negative = inhibition) at 10uM": -5.53},
      {"smiles": "CC1CCCCN1C(=O)CCNS(=O)(=O)c1ccc2c(c1)c(=O)n(C)c(=O)n2C", "note": "(stereo not drawn)", "hERG current change (%, negative = inhibition) at 10uM": -16.9},
      {"smiles": "CN1CCN(C(=O)/C=C/c2ccc([N+](=O)[O-])cc2)CC1", "hERG current change (%, negative = inhibition) at 10uM": -67},
      {"smiles": "Cc1ccc(NS(=O)(=O)c2ccc(CCC(=O)NC3CC3)cc2)cc1", "hERG current change (%, negative = inhibition) at 10uM": 0.354},
      {"smiles": "CC(NC(=O)c1ccc(=O)oc1)c1ccccc1", "note": "(stereo not drawn)", "hERG current change (%, negative = inhibition) at 10uM": -2.11},
      {"smiles": "COc1ccc(OC)c(CCNC(=O)C(=O)Nc2ccc3nc4n(c(=O)c3c2)CCCCC4)c1", "hERG current change (%, negative = inhibition) at 10uM": -19.1},
      {"smiles": "Cc1cccc(C(=O)NCC(=O)OCC(=O)c2ccc(Cl)s2)c1", "hERG current change (%, negative = inhibition) at 10uM": -15.5},
      {"smiles": "COc1ccc(N(CC(=O)NCc2ccco2)C(=O)CCC(=O)Nc2nccs2)c(OC)c1", "hERG current change (%, negative = inhibition) at 10uM": -18.2},
      {"smiles": "CC(C)c1ccc(NC(=O)c2cccc(Br)c2)cc1", "hERG current change (%, negative = inhibition) at 10uM": 20.6},
      {"smiles": "COc1cc2[nH]c(=O)n(Cc3ccc(C(=O)N4CCC(N5CCCCC5)CC4)cc3)c(=O)c2cc1OC", "hERG current change (%, negative = inhibition) at 10uM": 12.3},
      {"smiles": "Cc1ccc(C)c(OCCN2CCOCC2)c1", "hERG current change (%, negative = inhibition) at 10uM": 11.6},
      {"smiles": "COc1cccc(-c2nn(-c3ccc(C)cc3)cc2C(=O)NCC(c2cccs2)N2CCOCC2)c1", "note": "(stereo not drawn)", "hERG current change (%, negative = inhibition) at 10uM": 5.13},
      {"smiles": "CC(=O)c1ccc(OCCCC(=O)NC2CCCc3ccccc32)cc1", "note": "(stereo not drawn)", "hERG current change (%, negative = inhibition) at 10uM": -13.8},
      {"smiles": "CC(C)(C)c1ccc(-c2c(C#N)c(N)nc3c2CCCC3)s1", "hERG current change (%, negative = inhibition) at 10uM": -0.863},
      {"smiles": "O=C(O)c1ccccc1CSc1nc2ccccc2s1", "hERG current change (%, negative = inhibition) at 10uM": 20.1},
      {"smiles": "CCCN1C(=O)SC(CC(=O)Nc2ccccc2C)C1=O", "note": "(stereo not drawn)", "hERG current change (%, negative = inhibition) at 10uM": 2.91},
      {"smiles": "COc1ccc(CCNc2cc(N3CCN(C(=O)c4ccccc4F)CC3)ccc2[N+](=O)[O-])cc1OC", "hERG current change (%, negative = inhibition) at 10uM": 16.3},
      {"smiles": "CCOc1ccccc1/C=N/NC(=O)CSc1n[nH]c(=O)[nH]c1=O", "hERG current change (%, negative = inhibition) at 10uM": 27.5},
      {"smiles": "COc1ccc2nc(NC(=O)c3ccc(NC(=O)C4CCCO4)cc3)sc2c1", "note": "(stereo not drawn)", "hERG current change (%, negative = inhibition) at 10uM": 12.5},
      {"smiles": "CN1CCCN(C(=O)c2ccc(Cl)s2)CC1", "hERG current change (%, negative = inhibition) at 10uM": -93.3},
      {"smiles": "CCOC(=O)C1(Cc2cccc(F)c2)CCN(Cc2cnn(CC)c2C)CC1", "hERG current change (%, negative = inhibition) at 10uM": -16.6},
      {"smiles": "CCCN1C(=O)c2[nH]nc(-c3cc(Cl)c(C)cc3O)c2C1c1ccc(O)c(OC)c1", "note": "(stereo not drawn)", "hERG current change (%, negative = inhibition) at 10uM": 3.51},
      {"smiles": "COC(=O)c1c(C)[nH]c(C(=O)OCC(=O)NC(C)(C)C)c1C", "hERG current change (%, negative = inhibition) at 10uM": 20.2},
      {"smiles": "CC(=O)OCCc1c(C)nc2nc[nH]n2c1=O", "hERG current change (%, negative = inhibition) at 10uM": 16.3},
      {"smiles": "CNS(=O)(=O)c1ccc(OC)c(-c2nnc3c4ccccc4c(C)nn23)c1.Cl", "hERG current change (%, negative = inhibition) at 10uM": 7.8},
      {"smiles": "CCOC(=O)/C(C#N)=C/c1c(N2CCN(c3ccccc3)CC2)nc2c(C)cccn2c1=O", "hERG current change (%, negative = inhibition) at 10uM": 5.87},
      {"smiles": "O=c1c2ccccc2nnn1CSc1nnc2sc3ccccc3n12", "hERG current change (%, negative = inhibition) at 10uM": -5.58},
      {"smiles": "CCOc1ccc(/C(CCC(=O)O)=N/NC(=S)NC(C)C)cc1", "hERG current change (%, negative = inhibition) at 10uM": 14.1},
      {"smiles": "CN(C(=O)COc1cc(=O)n(C)c2ccccc12)c1ccc(Br)cc1", "hERG current change (%, negative = inhibition) at 10uM": -11.2},
      {"smiles": "Cc1ccc(/C=N/NC(=O)c2ccc(NC(=O)c3ccccc3Cl)cc2)o1", "hERG current change (%, negative = inhibition) at 10uM": 4.34},
      {"smiles": "COc1ccc(C2=NS(=O)(=O)N(C)C(C(=O)N3CCC4(CC3)OCCO4)=C2)cc1OC", "hERG current change (%, negative = inhibition) at 10uM": 14.6},
      {"smiles": "Cc1ccc2c(c1)c1nnc(SCC(=O)N3CCN(c4ccc(F)cc4)CC3)nc1n2CC(=O)O", "hERG current change (%, negative = inhibition) at 10uM": -63.1},
      {"smiles": "N#C/C(=C/c1ccc(N2CCOCC2)o1)C(=O)N1CCOCC1", "hERG current change (%, negative = inhibition) at 10uM": 17.5},
      {"smiles": "COc1ccccc1NC(=O)C1CCCN(S(=O)(=O)c2ccc(-n3cnnn3)cc2)C1", "note": "(stereo not drawn)", "hERG current change (%, negative = inhibition) at 10uM": -46.8},
      {"smiles": "CCN(CC)c1ccc(/C=N/NC(=O)c2cccc(N3CCCC3=O)c2)cc1", "hERG current change (%, negative = inhibition) at 10uM": -11.9},
      {"smiles": "Cc1cc2nc(-c3cccc(NC(=O)c4ccc(Br)o4)c3C)oc2cc1C", "hERG current change (%, negative = inhibition) at 10uM": 5.67},
      {"smiles": "O=C(Nc1cc(S(=O)(=O)N2CCOCC2)ccc1Cl)C1CCC1", "hERG current change (%, negative = inhibition) at 10uM": 6.14}
    ]}
  ]
}
